This is one part of the list. The list includes weakly bound sequences.
These sequences were tested against T1, MBP-FoxP3dN (UniProt Q99JB6) (assay: PD-seq (MBP pull-down with sequencing)). Settings: 20 mM Tris-HCl pH 7.5, 100 mM NaCl, 1.5 mM MgCl2, 0.4 uM protein, 0.1 uM dsDNA library, 30 min, room temperature, amylose pull-down; high values mean tight binding; double strand, one strand shown.
T1 sequence: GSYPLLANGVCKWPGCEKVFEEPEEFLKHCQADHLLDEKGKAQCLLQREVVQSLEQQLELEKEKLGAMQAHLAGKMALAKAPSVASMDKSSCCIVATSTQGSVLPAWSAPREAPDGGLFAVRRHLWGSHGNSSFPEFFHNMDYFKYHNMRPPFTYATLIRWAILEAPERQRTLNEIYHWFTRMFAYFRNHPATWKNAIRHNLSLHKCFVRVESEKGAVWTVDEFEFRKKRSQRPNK

Row | Sequence | binding signal (RPM ratio (pull-down/input))
1 | GATGATTGTTCTCCCAGCTGATGAATTTTCGACTTCGAGTAAACAAATTTTCCTAATCTTTCTGTTCAAGCGCCATCTAC | 0.478
2 | GATGATTGTTCTCCCAGCTGATGAATTTCGCTGGTCGAGTAAACAAATTTTCCTAATCTTTCTGTTCAAGCGCCATCTAC | 0.645
3 | GATGATTGTTCTCCCAGCTGATGAATTGTGTCGGTCGAGTAAACAAATTTTCCTAATCTTTCTGTTCAAGCGCCATCTAC | 0.899
4 | GATGATTGTTCTCCCAGCTGATGAATTGTCAGACTCGAGTAAACAAATTTTCCTAATCTTTCTGTTCAAGCGCCATCTAC | 0.272
5 | GATGATTGTTCTCCCAGCTGATGAATTGACTGCTTCGAGTAAACAAATTTTCCTAATCTTTCTGTTCAAGCGCCATCTAC | 0.439
6 | GATGATTGTTCTCCCAGCTGATGAATTGGGGTGGTCGAGTAAACAAATTTTCCTAATCTTTCTGTTCAAGCGCCATCTAC | 0.452
7 | GATGATTGTTCTCCCAGCTGATGAATTCATGTATTCGAGTAAACAAATTTTCCTAATCTTTCTGTTCAAGCGCCATCTAC | 1.88
8 | GATGATTGTTCTCCCAGCTGATGAATTGTATTTGTCGAGTAAACAAATTTTCCTAATCTTTCTGTTCAAGCGCCATCTAC | 6.43
9 | GATGATTGTTCTCCCAGCTGATGAATTAGCGCATTCGAGTAAACAAATTTTCCTAATCTTTCTGTTCAAGCGCCATCTAC | 7.23
10 | GATGATTGTTCTCCCAGCTGATGAATTTCCGAACTCGAGTAAACAAATTTTCCTAATCTTTCTGTTCAAGCGCCATCTAC | 0.207
11 | GATGATTGTTCTCCCAGCTGATGAATTCTTCTCTTCGAGTAAACAAATTTTCCTAATCTTTCTGTTCAAGCGCCATCTAC | 0.187
12 | GATGATTGTTCTCCCAGCTGATGAATTTTCAATGTCGAGTAAACAAATTTTCCTAATCTTTCTGTTCAAGCGCCATCTAC | 0.335
13 | GATGATTGTTCTCCCAGCTGATGAATTCAAGTGATCGAGTAAACAAATTTTCCTAATCTTTCTGTTCAAGCGCCATCTAC | 0.376
14 | GATGATTGTTCTCCCAGCTGATGAATTACTATCCTCGAGTAAACAAATTTTCCTAATCTTTCTGTTCAAGCGCCATCTAC | 0.379
15 | GATGATTGTTCTCCCAGCTGATGAATTCCACCCGTCGAGTAAACAAATTTTCCTAATCTTTCTGTTCAAGCGCCATCTAC | 0.242
16 | GATGATTGTTCTCCCAGCTGATGAATTTCAGTTTTCGAGTAAACAAATTTTCCTAATCTTTCTGTTCAAGCGCCATCTAC | 0.522
17 | GATGATTGTTCTCCCAGCTGATGAATTACAACACTCGAGTAAACAAATTTTCCTAATCTTTCTGTTCAAGCGCCATCTAC | 1.72
18 | GATGATTGTTCTCCCAGCTGATGAATTTAAACCCTCGAGTAAACAAATTTTCCTAATCTTTCTGTTCAAGCGCCATCTAC | 0.268

Reference: PMC12820563
